# Reference: publication PMC12136788
# Some of the results follow.
# T1: UNK ZnF1-3 (human, UniProt Q9C0B0 31-174)
# T1 sequence: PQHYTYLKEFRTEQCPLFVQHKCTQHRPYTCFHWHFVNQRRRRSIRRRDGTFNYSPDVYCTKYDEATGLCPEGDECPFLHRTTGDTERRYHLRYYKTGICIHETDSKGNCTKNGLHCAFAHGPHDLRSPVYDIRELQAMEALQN
# B1: chr7:90019461:90019462:+_ENSMUSG00000057706_ENSMUST00000082237|mus_hu|motif|central (ssRNA)
# RNA: GGGAGUUCUACAGUCCGACGAUCCGUCACAAUUGUGUGAUUAUUAAAAUAAUACAGUGUUCUUUGCCAUAAGGCCAUACGGAAAUAAAAAGAUUUAACCCAGCUACAAAAAAGUUCACUGAACUUAAAUUAAAAUACUUGUAACAACAGAGGAUUGAGCAUCA
# B2: 44746294_44746414_122_CDS_ENSMUSG00000022668_ENSMUST00000162512|mouse|control|control (ssRNA)
# RNA: GGGAGUUCUACAGUCCGACGAUCCCGCAGCGGGUACACUACCUUCGUUAGCUGUUUCUGUGGCAGCCUUAGCACUUCUGCGAAGGCAGGGGACGUGCUGUAAACCCGGGUCCAAGGCCCCAGUGCUGGCGCUUUCUCAAGGAGCAACAGAGGAUUGAGCAUCA
# B3: chr16:13788901:13788902:+_ENSMUSG00000022682_ENSMUST00000023363|mus_mus|motif|central (ssRNA)
# RNA: GGGAGUUCUACAGUCCGACGAUCGAUGUUUAUAAGUUGCUCAAAGUCUUUUGUCAAGUACAUGACAGAGGAACGAAAUUCGGGUAGCCAGUUAAUGAUCUGGUCAUCCUUUAUAUCAGGAUCAGACAGCUGGUUCUUCAACAACAACAGAGGAUUGAGCAUCA
# B4: chr2:5814250:5814251:-_ENSMUSG00000025816_ENSMUST00000102981|mus_hu|mus_mus_mus_hu_True|78_78 (ssRNA)
# RNA: GGGAGUUCUACAGUCCGACGAUCUUCCUUUCCGGUUUCUGAAUUUCUGGUAGAACUGCACAGAAAGGUUUGAUAACUUCUAAAAAUUUGAUGCCCAUGGCUGCUGCUGGGGAGGCCCAGGGGGAAACCGCGGCCUCGGCGCUGCAACAGAGGAUUGAGCAUCA
# B5: chr17:87832841:87832842:-_ENSMUSG00000036438_ENSMUST00000040440|perfect_dup|FALSE|FALSE (ssRNA)
# RNA: GGGAGUUCUACAGUCCGACGAUCUAUACAACUUGGAAUGGAUUUUGAGGCAAAUUGUGCCAUAAGCAGAUUUUAAGUGGCUAAACAAAGUUUAAAAAGCAAGUAACAAUAAAAGAAAAUGUUUCUGGUACAGGACCAGCAGUACAACAGAGGAUUGAGCAUCA
# B6: chr14:102368134:102368135:+_ENSG00000078304_ENST00000445439|hu_hu|FALSE|FALSE (ssRNA)
# RNA: GGGAGUUCUACAGUCCGACGAUCGAGGGGUUCCAUGAUCUUCACAAAUUCUGAUGGUUCAAUGACAUCUAAAAUCUCUUCUAAUUCGUUUAAGAACAUUACUUCUUUUGGACUGUGAGUCUUUGGCCAGUAUUUGAGAAGUGCCAACAGAGGAUUGAGCAUCA
# B7: 137498895_137499015_2185_CDS_ENSG00000112983_ENST00000230901|human|control|control (ssRNA)
# RNA: GGGAGUUCUACAGUCCGACGAUCGCCAUCAUCACUCUCGCUCACAGGAGGUUCAUUAUCCAUUUCUGACAAGUAGCCUUCUCCUUGAUCCUCUUCCUUAGGCUCCUCUAGGCUGGCCGCUUCACUGACACCAUCUUCCUCCUCCAACAGAGGAUUGAGCAUCA
# B8: chr2:181286759:181286760:+_ENSMUSG00000000826_ENSMUST00000072334|mus_hu|motif|central (ssRNA)
# RNA: GGGAGUUCUACAGUCCGACGAUCGCUGCACUAACAACAUAGAGAACUAGGAAAGUUCACAAACACUGAGCAGUAAUAUCGGAAGCAGUUUAAAAAUAAAGCCAAAAGGAAGACAAAAAAAUCCCACGUCACUGAGUGGAGACACAACAGAGGAUUGAGCAUCA
# B9: chr2:38870607:38870608:+_ENSMUSG00000026755_ENSMUST00000090993|perfect_dup|motif|central (ssRNA)
# RNA: GGGAGUUCUACAGUCCGACGAUCGUCUUUUUAUUUUUUUUAAACAGUCUUUCUUGCUGUAAGAACUCUUAUAAUGGAGCCGGGUCCUCCUACUGCUAAGGCCUUUUCGUGCCACUGGAGUAACACUGCGCUGCUAUUUUCUGUCAACAGAGGAUUGAGCAUCA
# B10: 116313033_116323945_1268_3pUTR_ENSMUSG00000029516_ENSMUST00000051704|mouse|control|control (ssRNA)
# RNA: GGGAGUUCUACAGUCCGACGAUCAAAACUGGAUCAUGCUCUCAUCUAAUUGGUCCUCGUAUCUGUUCAGAAGCGACAGCAAAUCCCCUCCAGGCUGAUAUUCCAUGACCAGGUAAAGGUUAUUUUUGUCCUGAAAGGCGUACUCAACAGAGGAUUGAGCAUCA
# B11: 45241262_45242349_214_CDS_ENSG00000142937_ENST00000396651|human|control|control (ssRNA)
# RNA: GGGAGUUCUACAGUCCGACGAUCAAUCUUGGUGUUGGCAGCUGGGCGCCCCAACUCAUACUUCCGCUUCUUGUGGUAGGGCUUUCUCUUGCCCCCGGUUUUGCGGCGCUUGUGCCAGUUGUCCCGAGAGAUGCCCAUCGCUCGCAACAGAGGAUUGAGCAUCA
# B12: chr14:78183846:78183847:+_ENSG00000119705_ENST00000557342|hu_hu|hu_hu_hu_mus_False|1_18 (ssRNA)
# RNA: GGGAGUUCUACAGUCCGACGAUCUCUCAGAAAUCUUUCUUCAUCAGAUGUUUGAGCUCCGUGCAAAGCCUUUGCUCUUUGAGCUUGAACGUGGAUCUAUGGGAGGGAAAGCACUGUAUUUUCCUGUAAUUUUUUUUUCCGAAGCAACAGAGGAUUGAGCAUCA
# B13: chr12:1019172:1019173:+_ENSG00000060237_ENST00000535572|hu_mus|FALSE|FALSE (ssRNA)
# RNA: GGGAGUUCUACAGUCCGACGAUCGUUCACUGGCCAAGCAUCACUUCAAACAAGCUUGUCCCCACAUCUUCAGUCCUUAUCUUUCACACACAGCUCACAACCCUCCUCAUUCUUUCUGAAACAGAACUUUGUUUUCAACCACUGCAACAGAGGAUUGAGCAUCA
# B14: chr12:17277247:17277248:+_ENSMUSG00000020571_ENSMUST00000057288|mus_hu|FALSE|FALSE (ssRNA)
# RNA: GGGAGUUCUACAGUCCGACGAUCAAUUCGAUGGAGUUAAUUCGAUCACAUCAUCACUAGAGGAAUACAGACCAUUCACUGCCAGAAAGAAGGUACAGCUCACCAGACCGAGCACCAGGAGAGCCAUGCCGAGCGCCGGGCUACCAACAGAGGAUUGAGCAUCA
# B15: chr13:60863204:60863205:+_ENSMUSG00000021559_ENSMUST00000077453|mus_hu|FALSE|FALSE (ssRNA)
# RNA: GGGAGUUCUACAGUCCGACGAUCAGUCCAAACAGACCCUGCCCAAGCCAGAGGCUGCCCUCACCGGGAUACAACAGAGCUAAUGGAAUUGUAAGAGGUGCCGCUGUUGCAGCUCGAGGCAUAGGCCUCCUGGCCAUUGCCAUCCAACAGAGGAUUGAGCAUCA
# B16: chr16:87451109:87451110:-_ENSG00000140948_ENST00000268616|hu_hu|motif|central (ssRNA)
# RNA: GGGAGUUCUACAGUCCGACGAUCCUUCUCCAUGGAGAGCUGCUUAAAGACGGGGUAAUACUUGUGCAAACGCAGUUUCCGGAGCCAGUCUAGAAUCCCAUUCUGCUCCUGGGUCUGAGGGGUCUGCAGACUGGAAGGCAUGAGCAACAGAGGAUUGAGCAUCA
# B17: 36662353_36662473_466_3pUTR_ENSG00000101413_ENST00000373433|human|control|control (ssRNA)
# RNA: GGGAGUUCUACAGUCCGACGAUCAGACGAUGGGUCCCGCGUGCUUGCGGUGGUGGAUGAGCCAAAGGGACAGGGUCUGCACGCUCUGCUGAGAGUUGCUCAGCUCCGAGAGCUUCUUCUCCAGCGCCGACUCAGAGAAGGAGGCAACAGAGGAUUGAGCAUCA
# B18: 41397836_41400616_619_CDS_ENSMUSG00000025764_ENSMUST00000026865|mouse|control|control (ssRNA)
# RNA: GGGAGUUCUACAGUCCGACGAUCAUGAUUCAUAUUGUCAUAGCAUCGCUGUUCGAAUUCCUCCAAGACCCUUUCCAUGGUGUACUCGUCCAGCUCCGGCAUCCCCAUCUCCUUAAAUUCUUCAUUGGUUACUUCCAGCCACGCCAACAGAGGAUUGAGCAUCA
# B19: 37339268_37339388_916_CDS_ENSMUSG00000035437_ENSMUST00000112920|mouse|control|control (ssRNA)
# RNA: GGGAGUUCUACAGUCCGACGAUCAUCAUCUUCUUUUAUUUCUAAAGACACAGAGAAGGUAAAGAUGUCGCUGUCAGGAGUCUGUGGUGCAGCUGUGGCUGAGAGUGGGGUCUGCUUGGCAGAGCGGCGGAAGGCGGUGGCAAACAACAGAGGAUUGAGCAUCA
# B20: chr5:146772872:146772873:-_ENSG00000113657_ENST00000343218|hu_hu|motif|central (ssRNA)
# RNA: GGGAGUUCUACAGUCCGACGAUCGCUCUGUCCCUGCCUGGCCUUCCCAACCCAGGAAAGAGAAGGAUUUGAAAGCAACACGGAGAAAGAGGCCUGAGCAAACACUGGCACAAUCAAGCAGGUGGAAGAAAUGGUUGGGUCUUGCAACAGAGGAUUGAGCAUCA
# B21: 60193790_60193910_1887_CDS_ENSG00000139970_ENST00000267484|human|control|control (ssRNA)
# RNA: GGGAGUUCUACAGUCCGACGAUCGGGCAGCUCGGGGCCAGGCUGGGGCUCAGUUGAGGGGUAGUCGAGGAAGGAACCCGGCUCGGCCAGGCCCCGCCGGCUUGGCGCACGCUCCUCGGCCCGGACGCCAGUCUCCUCCCGGAUCAACAGAGGAUUGAGCAUCA
# B22: 121703871_121703991_501_3pUTR_ENSMUSG00000042744_ENSMUST00000119892|mouse|control|control (ssRNA)
# RNA: GGGAGUUCUACAGUCCGACGAUCAGUCCACGCAAGGCAUUCAGGCGGUAUUCCAGCAGGCGGGCAUAGGCAUUGCUCUGGUUCCCACAAACAGAGCGCAAACGUUCUGCUAAUUCUGUUGGGUUCUUGGUCUCGAAUGUUAAACAACAGAGGAUUGAGCAUCA
# Biological target: T1, UNK ZnF1-3
# Test: nsRBNS (natural sequence RNA bind-n-seq); RBNS binding buffer (assumed for nsRBNS): 25 mM Tris pH 7.5, 150 mM KCl, 3 mM MgCl2, 0.01% Triton X-100, 500 ug/ml BSA, 20 U/ml SUPERase-In, 4 C; UNK is unkempt and MSI1 is Musashi-1; names of the RNAs are library labels; protein concentration not given here; high values mean tight binding
row,Binder,binding signal [enrichment R]
1,B1,1.45
2,B2,1.01
3,B3,1.01
4,B4,1.4
5,B5,0.947
6,B6,0.82
7,B7,0.688
8,B8,2.51
9,B9,0.52
10,B10,0.796
11,B11,0.428
12,B12,0.824
13,B13,1.22
14,B14,1.61
15,B15,0.908
16,B16,0.838
17,B17,1.54
18,B18,1.08
19,B19,1.64
20,B20,2.99
21,B21,1.05
22,B22,1.39
